Assay results as given in publication PMC4336329 (PLoS ONE, 2015).
Screen size: about 310,000 compounds; about 2,200 (0.71%) showed an effect of 50% or more. Effects have a minus sign here. This is one part of the list.

What follows are compounds tested against human ether-à-go-go-related gene (hERG) potassium channel (human, UniProt Q12809) (assay: primary screen, population patch clamp on CHO cells stably expressing hERG).
Chain of human ether-à-go-go-related gene (hERG) potassium channel (Q12809 whole entry, looked up): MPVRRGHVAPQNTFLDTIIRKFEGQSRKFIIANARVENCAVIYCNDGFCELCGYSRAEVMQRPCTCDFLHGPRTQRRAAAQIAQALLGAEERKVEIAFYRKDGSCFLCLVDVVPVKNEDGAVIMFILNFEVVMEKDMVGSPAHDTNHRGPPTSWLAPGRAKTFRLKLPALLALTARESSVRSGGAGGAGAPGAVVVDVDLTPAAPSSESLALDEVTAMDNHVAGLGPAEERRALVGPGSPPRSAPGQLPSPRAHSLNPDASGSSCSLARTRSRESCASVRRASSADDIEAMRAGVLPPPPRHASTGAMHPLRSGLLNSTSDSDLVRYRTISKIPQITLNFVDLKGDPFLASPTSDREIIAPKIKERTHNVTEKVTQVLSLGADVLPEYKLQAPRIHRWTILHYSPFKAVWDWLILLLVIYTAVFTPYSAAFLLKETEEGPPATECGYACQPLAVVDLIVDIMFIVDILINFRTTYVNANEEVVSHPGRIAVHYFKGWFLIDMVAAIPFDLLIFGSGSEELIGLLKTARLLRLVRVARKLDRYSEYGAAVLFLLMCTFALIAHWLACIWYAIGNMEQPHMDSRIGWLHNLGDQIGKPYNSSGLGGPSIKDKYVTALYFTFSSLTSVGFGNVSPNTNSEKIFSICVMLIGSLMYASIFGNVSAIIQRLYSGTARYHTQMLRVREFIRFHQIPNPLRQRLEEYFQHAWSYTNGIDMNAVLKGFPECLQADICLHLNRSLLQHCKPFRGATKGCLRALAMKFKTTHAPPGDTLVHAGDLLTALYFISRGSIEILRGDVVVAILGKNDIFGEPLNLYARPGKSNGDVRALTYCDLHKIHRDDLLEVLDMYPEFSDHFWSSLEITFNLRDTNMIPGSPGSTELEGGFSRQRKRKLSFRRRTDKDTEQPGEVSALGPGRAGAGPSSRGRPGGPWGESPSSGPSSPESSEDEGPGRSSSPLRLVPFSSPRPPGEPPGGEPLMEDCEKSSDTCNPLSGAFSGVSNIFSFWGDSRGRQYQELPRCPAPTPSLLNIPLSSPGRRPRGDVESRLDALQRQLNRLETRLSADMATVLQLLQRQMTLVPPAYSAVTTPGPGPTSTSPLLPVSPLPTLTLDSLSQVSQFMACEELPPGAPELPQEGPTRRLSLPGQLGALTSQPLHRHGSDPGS

Compound	hERG current change (%, negative = inhibition) at 1uM [%]
COc1ccc(-n2nnnc2S(=O)(=O)Cc2ccc(C(=O)O)cc2)cc1	12.5
COc1ccc(-c2cc3ccccc3s2)cc1[C@H]1[C@H]2C=CC[C@@H](C)[C@@H]2C(=O)N1Cc1ccccc1	5.88
CCc1ccccc1Nc1cc(C(=O)NCc2ccccn2)c2ccccc2n1	-1.94
Cc1ccccc1CC(=O)Nc1ccon1	10.2
CC(=O)COC(=O)C1=NN(c2ccccc2)C(=O)CC1	17.6
COc1cccc(CC2(CO)CCN(Cc3cn(C)nc3C)CC2)c1	17.4
CC(Oc1ccccc1F)C(=O)NNC(=O)CCNC(=O)c1ccccc1Cl (stereo not shown)	6.7
O=C(c1ccc(Br)c(S(=O)(=O)N2CCCCC2)c1)N1CCCCC1	9.79
Cc1ccc(-c2nnc(-c3ccccc3S(=O)(=O)Cc3ccc(Cl)cc3)o2)cc1	5.87
COc1ccc(N(CC(=O)NCCc2ccccc2)C(=O)CCC(=O)Nc2nccs2)cc1	11.3
O=C1c2ccc(Oc3cccc([N+](=O)[O-])c3)cc2C(=O)N1c1ccccn1	12.6
Cc1ccc(NC(=O)c2cc([N+](=O)[O-])ccc2N2CCOCC2)cc1S(=O)(=O)N(C)C	3
Cc1ccc(/C=N\NC(=O)Cc2noc3ccccc23)cc1	10.7
C/C(=N/NC(=O)c1ccc2nc[nH]c2c1)c1cccs1	8.84
C(=N\Nc1ccc2ccccc2n1)/c1ccc2c(c1)OCCO2	9.97
Cc1nc2nc(SCC(=O)O)nn2c(C)c1Cc1ccccc1Cl	5.58
COc1ccccc1-c1c(C)[nH]n2c(=O)c(Cc3ccccc3)c(C)nc12	5.73
CCCCN1C(=O)C(=O)N(CC(=O)Nc2cc(S(=O)(=O)N(C)C)ccc2C)C1=O	9.82
O=C(CN1C(=O)c2ccccc2S1(=O)=O)N1CCOCC1	5.46
Cc1ccc(NC(=O)CN(C)C(=O)c2sc3cc(Cl)ccc3c2Cl)cc1	19.6
CCC(=O)N(CCC(Cc1ccccc1)c1ccc2c(c1)OCO2)Cc1ccccc1F (stereo not shown)	3.46
COc1ccc2sc(-c3ccccc3OC)c(C#CC(C)(C)O)c2c1	14.8
COc1cc(C(=O)c2c(C)c(CCC#N)n3ccccc23)cc(OC)c1OC	3.09
Cc1cc(C)c(C)c(C(=O)c2ccccc2C(=O)O)c1C	6.64
CCCc1nn2c(=O)cc(CSCC(=O)Nc3ccccc3OC)nc2s1	10.5
CCC1=NN(C(=O)Cc2ccc([N+](=O)[O-])cc2)C(O)(c2ccc(Br)cc2)C1 (stereo not shown)	2.03
O=C(O)/C(=C\c1ccc(Cl)cc1)c1ccc(F)cc1	13.5
Cc1cccc(-n2ncc3c(Nc4ccc(F)cc4)ncnc32)c1	8.92

Compound	hERG current change (%, negative = inhibition) at 1uM [%]
Cc1ccc(S(=O)(=O)NCC(=O)N(CC(=O)NC2CCCCC2)Cc2ccco2)cc1	-8.5
CCOC(=O)C1=C(CC)OC(N)=C(C#N)C1c1ccc(OC)c(OC)c1OC (stereo not shown)	11
CC(=O)Nc1ccc(NC(=O)C(C)OC(=O)C2CC(=O)N(CCc3ccccc3)C2)cc1 (stereo not shown)	11.6
COC(=O)C1=C(C)NC(c2c(O)ccc3ccccc23)C(C(=O)OC)=C1C (stereo not shown)	12.7
CCCCCN1CC(=O)N2Cc3[nH]c4ccccc4c3C[C@H]2C1=O	8.21
COc1cc2nc(COc3ccccc3[N+](=O)[O-])oc(=O)c2cc1OC	7.19
CCOc1ccc(N/C=C/C(=O)c2cc(OC)c(OC)c(OC)c2)cc1	10.3
COC(=O)CN1C(=O)N/C(=C/c2cc3c(cc2OC)OCO3)C1=O	8.5
COC(=O)c1ccc(NC(=O)CCS(=O)(=O)c2ccc(Br)s2)cc1	26.4
Cc1ccc2c(c1)NC(=O)C(CC(=O)NCCCN1CCCCC1)O2 (stereo not shown)	6.37
O=C(Nc1nnc(-c2ccc(F)cc2)s1)c1ccco1	12.5
COc1ccc(C2=CC(c3ccc(F)cc3)n3nnnc3N2)cc1 (stereo not shown)	15.9
CSc1ccc(C#N)cc1NC(=O)c1ccccc1C	-8.04
Cc1ccc(CNC(=O)COc2ccc3c(c2)CCC3)cc1	-2.48
COc1cccc2c1OCC([C@@H]1C[C@H]3CN(Cc4cccc(Cl)c4)C(=O)[C@]34CCCN14)=C2	-1.56
CCOC(=O)C[C@H]1c2ccccc2S(=O)(=O)N1c1ccccc1	14.3
CN(C)C(=O)c1ccc(NC(=O)c2sccc2-c2ccccc2)cc1	9.11
O=C(Cn1cnc2c(nnn2Cc2ccc(F)cc2)c1=O)OCc1ccccc1	6.54
CCCNC(=O)C1(CC2CC(c3ccccc3)=NO2)CCN(C(=O)OC(C)(C)C)CC1 (stereo not shown)	-6.42
COC(=O)c1scc(C)c1NC(=O)C1CCCCC1	6.21
CC1(C)CC2CC(C)(CN2C(=S)NC(=O)c2ccccc2Cl)C1 (stereo not shown)	5.28
Cc1cccc(NC(=O)c2cccc(S(=O)(=O)N3CCCC3)c2)n1	8.94
CN(C(=O)C1CCCC1)C1CCS(=O)(=O)C1 (stereo not shown)	8.21
Cc1ccc(C(C(=O)NCc2ccco2)N(C(=O)Cc2cccs2)c2cccnc2)cc1 (stereo not shown)	15.4
O=C(CSc1ccccc1)Nc1ccccc1C(=O)O	8.75
Cc1nc2c(-c3ccccc3)c(C)nn2c(C)c1CCC(=O)N1CCC2(CC1)OCCO2	-14.1
O=C(CN1C(=O)c2ccccc2S1(=O)=O)Nc1ccccc1C(=O)NCc1ccco1	8.6
